# Measured values: publication PMC6919601, “Identification of Plasmodium dipeptidyl aminopeptidase allosteric inhibitors by high throughput screening” (PLoS ONE, 2019)
# The whole screen tested about 110,000 compounds, of which about 230 (0.21%) showed an effect of 50% or more. The list shows a part of the results.
# Target: DPAP1 (Plasmodium falciparum, UniProt Q8IIJ9)
# Assay: primary screen, percent inhibition; read by cleavage of a fluorogenic dipeptide substrate; higher = more effect of the substance
# Parameters: species or system P. falciparum D10 trophozoite lysates; single well
# 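Further: 30 min substrate incubation versus DMSO and 10 µM JCP410 controls.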
# Chain of DPAP1 (Q8IIJ9 whole entry, looked up): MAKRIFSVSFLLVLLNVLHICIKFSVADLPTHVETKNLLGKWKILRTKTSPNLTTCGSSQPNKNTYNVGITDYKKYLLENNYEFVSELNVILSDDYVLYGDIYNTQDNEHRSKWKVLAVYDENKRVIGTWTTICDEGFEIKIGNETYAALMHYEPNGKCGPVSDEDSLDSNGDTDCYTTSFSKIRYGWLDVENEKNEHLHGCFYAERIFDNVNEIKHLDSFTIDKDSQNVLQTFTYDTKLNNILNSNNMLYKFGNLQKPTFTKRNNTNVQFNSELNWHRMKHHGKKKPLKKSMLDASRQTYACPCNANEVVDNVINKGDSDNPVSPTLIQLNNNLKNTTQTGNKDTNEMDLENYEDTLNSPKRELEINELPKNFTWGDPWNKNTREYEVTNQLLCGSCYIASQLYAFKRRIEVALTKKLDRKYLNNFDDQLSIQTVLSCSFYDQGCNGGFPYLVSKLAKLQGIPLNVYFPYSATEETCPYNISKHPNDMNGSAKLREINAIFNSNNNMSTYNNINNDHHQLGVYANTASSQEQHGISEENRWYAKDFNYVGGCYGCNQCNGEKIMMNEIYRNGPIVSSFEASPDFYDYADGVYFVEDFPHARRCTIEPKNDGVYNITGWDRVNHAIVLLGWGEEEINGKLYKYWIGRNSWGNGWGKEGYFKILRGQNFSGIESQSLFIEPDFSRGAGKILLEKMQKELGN
row,Compound,% Inhibition @ 10 uM [%]
1,COc1ccc(-n2c(SCc3cc(=O)n4ccccc4n3)nc3nnc(C)c-3c2N)cc1,1.2
2,CCOc1ccc(Nc2nc(-c3sc(N)nc3C)cs2)cc1,-8.01
3,CCC(C)NC(=O)C(=O)NCc1ccc(Cl)cc1 (centres unmarked),1.29
4,O=C(Nc1nccs1)c1ccccc1Br,-6.57
5,CC(=O)c1cccc(NS(=O)(=O)c2cccc(C)c2)c1,-7.09
6,CN(Cc1ccc(F)cc1)CC(O)c1ccccc1 (centres unmarked),6.06
7,COc1ccc(/C=C2\CCOC2=O)cc1,-3.55
8,Cc1nn(Cc2ccccc2)c(C)c1NC(=O)c1noc2c1CCc1ccccc1-2,-5.09
9,COc1ccccc1CNC(=O)Nc1cn(CC(C)C)c(=O)c2ccccc12,-4.21
10,CC(NC(=O)c1ccccc1F)c1ccc2c(c1)OCCO2 (centres unmarked),-0.28
11,Cc1cccc(N2CCN(S(C)(=O)=O)CC2)c1C,-0.641
12,CCO/C(O)=C(/C=N/c1cc(C)nn1-c1ccccc1)C(C)=O,0.708
13,COCCNC(=O)c1nn(C)c2c1CSc1ccccc1-2,21.4
14,COc1ccc(C(=O)Nc2nn3c(CC(C)C)nnc3s2)cc1,3.3
15,Cc1nc2sc(C(N)=O)c(N)c2c(C)c1C,-0.712
16,Cc1ccc(S(=O)(=O)NCCC(=O)N2CCOCCOCCOCC2)cc1,0.189
17,COc1ccc(-c2nc3scc(CCNC(=O)c4ccco4)n3n2)cc1,2.1
18,CCN(CC)S(=O)(=O)c1ccc(N2CCN(C(C)C)CC2)nc1,-1.51
19,CC(=O)N(Cc1cc2cccc(C)c2nc1O)c1cccc(C)c1,3.57
20,N#Cc1ccccc1-c1ccc(/C=C2/SC(=O)NC2=O)o1,-5.99
21,CCc1[nH]nc2c1C(c1ccc(OCC(N)=O)cc1)C(C#N)=C(N)O2 (centres unmarked),-2.56

row,Compound,% Inhibition @ 10 uM [%]
1,COc1ccc(OC)c(C2SCCN2S(=O)(=O)c2cccc(C(F)(F)F)c2)c1 (centres unmarked),-3.4
2,COc1cccc(C2C3=C(O)CCCC3=NC(C)=C2C(=O)Nc2cc(C)ccn2)c1 (centres unmarked),13.2
3,CCC(CC)C(=O)Nc1ccc(NC(=O)c2cccs2)cc1,-3.29
4,CC1=C(C(=O)OC2CCCCCC2)C(c2ccccc2C(F)(F)F)CC(=O)N1 (centres unmarked),-1
5,CN(Cc1ccco1)C(=O)Cn1ncc2c1-c1ccccc1OC2,-0.692
6,O=C(NCCC1=CCCCC1)c1cc(-c2ccccn2)nc2ccccc12,-0.406
7,Cc1ccc2nc3c(O)n(CC(=O)N4CC(C)CC(C)C4)ncc-3c2c1 (centres unmarked),-1.06
8,Cc1ccc(C)c(Oc2c(C(F)(F)F)oc3c(CN4CCN(C)CC4)c(O)ccc3c2=O)c1,4.84
9,CCN(CC)S(=O)(=O)N1CCC(C(=O)NCCN2CCOCC2)CC1,1.16
10,CC1=C(C(=O)OC2CCCCCCC2)C(c2cc3c(cc2Br)OCO3)CC(=O)N1 (centres unmarked),-2.24
11,CC(=O)N[C@@H](CC(C)C)C(=O)NCC#N,7.72
12,Cc1nn(C(C)C(=O)NCCCN2CCCCCC2)c(=O)c2cc3sccc3n12 (centres unmarked),-5.19
13,CC(=O)NCCc1nc2ccccc2n1CCCOc1cc(C)ccc1C(C)C,-2.28
14,COc1cc(/C=C2\SC(N)=NC2=O)cc(Br)c1OCc1ccccc1,1.14
15,COc1ccc(S(=O)(=O)NC2=NC(=O)/C(=C\c3ccc(OC)c(OC)c3)S2)cc1,34.3
16,CCC[C@@H](/C=C/S(=O)(=O)c1ccccc1)NC(=O)[C@H](Cc1ccc2ccccc2c1)NC(=O)N1CCC(N2CCOCC2)CC1,0.173
17,Cc1ccc(CN2C(=O)N/C(=C\c3ccccc3OCc3ccc(C(=O)O)cc3)C2=O)cc1,3.72
18,O=C(NCCN1CCOCC1)C(c1ccccc1)c1ccccc1,0.709
19,COc1ccc(-n2c(O)cnc2Nc2nc(C)cc(C)n2)cc1OC,5.55
20,Cc1cc(=O)n2nc(N3CCCC3C(=O)NCc3cccc(Cl)c3)sc2n1 (centres unmarked),-5.63
21,C=CCOc1cccc(C2c3c(oc4ccccc4c3=O)C(=O)N2c2nnc(C)s2)c1 (centres unmarked),0.189

row,Compound,% Inhibition @ 10 uM [%]
1,O=C(C(c1ccccc1)c1ccccc1)N1CCN(C2CC3CCC2C3)CC1 (centres unmarked),0.206
2,O=C1CC(c2ccccc2)CC(O)=C1/C=N/c1ccc(O)cc1 (centres unmarked),-5.01
3,CCCn1c(=O)c(C(=O)Nc2cccc(Cl)c2Cl)c(O)c2ccccc21,4.31
4,O=C(O)CCc1ccc2ccccc2c1Br,-0.902
5,O=C(c1ccccc1C(=O)N1CCN(c2ccc(F)cc2)CC1)N1CCN(c2ccc(F)cc2)CC1,-4.69
6,COc1ccc(C2C(C#N)=C(N)Oc3c2c(C)nn3-c2cccc(Cl)c2)cc1 (centres unmarked),-6.92
7,c1ccc2c(c1)OCC(c1csc3ncnc(N4CCOCC4)c13)O2 (centres unmarked),-7.14
8,Cc1ccc(-c2nc(NC(=O)C(C)C)sc2C)cc1,-7.96
9,COc1cccc(NC(=O)CN(c2cccc(OC)c2)S(=O)(=O)c2ccccc2)c1,-5.67
10,CC1CCCCN1C(=O)CSc1nc(-c2cccs2)cc(C(F)(F)F)n1 (centres unmarked),-0.958
11,O=C(Cc1ccccc1)Nc1ccccc1[N+](=O)[O-],-2.42
12,CCN(CC)C(=O)c1sc(NC(=O)c2c(OC)cccc2OC)c(C#N)c1C,-0.736
13,c1ccc(C2CCC(NCCN3CCCCC3)CC2)cc1 (centres unmarked),-4.75
14,N#CC1(NC(=O)[C@H](Cc2c(F)cccc2F)NC(=O)c2ccc(-c3ccccc3Cl)c(Cl)c2)CCOCC1,-5.2
15,CC(=O)Nc1nnc(CCS(=O)(=O)c2ccc(Cl)cc2)s1,2.92
16,COCCCNc1nc2c(c(=O)n(Cc3ccc(OC)cc3)c(=O)n2C)n1C,-3.27
17,COc1ccccc1-c1cc(C(F)(F)F)nc(N2CCN(Cc3ccccc3)CC2)n1,2.59
18,O=C(CC1Sc2ccccc2NC1=O)Nc1ccc(Cl)c(C(F)(F)F)c1 (centres unmarked),2.47
19,CCCS(=O)(=O)c1nc(S(=O)(=O)c2ccc(C)cc2)c(NCCN2CCOCC2)s1,1.15
20,CC(CCN1CCCN(C)CC1)c1ccccc1 (centres unmarked),2.7
